Among the data in PubChem BioAssay (NCATS) are max response and AC50 values, retold here.

Some of the results follow. These are further read-outs of the screen, such as a control signal, another cell line or another target. No call is given for them. The list favours compounds with an active or inconclusive main result. The note in brackets gives the kind of curve behind each potency; many fits are weak.

This experiment is described as follows: qHTS Assay for Lipid Storage Modulators (AID 1519). The following applies: Drosophila S3 cells, BODIPY lipid droplet/cell ratio, laser cytometry, cells loaded with oleic acid. The procedure, abridged:
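Cells seeded at 5,000 per well were treated with compounds over a concentration series and loaded with oleic acid (400 uM, as added). Lipid droplet fluorescence (488 nm excitation, 500-530 nm channel) was read by laser-scanning cytometry and normalized to 20 uM Triacsin C.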
Background: Quantitative high-throughput screening tests each substance at several concentrations.

The mark [1] stands for this setting: measured here: cell count channel max response.
Setting [2] is: measured here: cell number channel AC50.
Setting [3] is: measured here: lipid channel max response.
[4] abbreviates: measured here: lipid (BODIPY) channel AC50.
Tags describe the fitted curve by direction and shape.

As to `O[C@H](CN1CCN(c2cccc(Cl)c2)CC1)C(c1ccccc1)c1ccccc1`, the max response runs as follows: under setting [1], 74.3%; under setting [3], 67.2%. Moreover, the concentration at half-maximal activity (AC50) (in general, the midpoint of the concentration-response curve, whichever way the signal moves) under setting [2] is 14.1 µM [rising, partial curve, poor fit].
With `CC(=O)N1CCC2(CCCN(c3ncccn3)C2)CC1`, the max response is, setting by setting: under setting [1], 7.35%; under setting [3], 16.3%. For the same compound, the half-maximal activity concentration (AC50) under setting [4] was 0.178 µM [rising, full curve, poor fit].
As to `N#CCCn1c(=O)c(-c2cccs2)nc2cnc(N3CCOCC3)nc21`, the max response is 5.12% under setting [1] and -5.89% under setting [3]. In addition, under setting [4], the concentration at half-maximal activity (AC50) was 1.58 µM [rising, partial curve].
`COc1ccc(/C=C/C(=O)c2cc(O)ccc2O)cc1`: the max response is, setting by setting: under setting [1], -0.0516%; under setting [3], -42.5%. In addition, under setting [4], the half-maximal activity concentration (AC50) is 14.1 µM [falling, partial curve, poor fit].
As to `OCC(O)C(O)C(O)C(O)C(O)CO` (stereo not given), the max response under setting [1] is 27.5% and the max response under setting [3] was determined as 39.2%. Also, the AC50 under setting [4] is 39.8 µM [rising, single point].
With `Cc1cc(O)cc(=O)o1`, the max response under setting [1] was 24.6% and the max response under setting [3] came out at 39.2%. Besides, the half-maximal activity concentration (AC50) under setting [4] was 22.4 µM [rising, partial curve, poor fit].
`CN(C)c1ncc2nc(-c3cccs3)c(=O)n(Cc3cccs3)c2n1`: the max response runs as follows: under setting [1], 22%; under setting [3], 18.6%. The AC50 under setting [2] was 0.562 µM [rising, full curve, poor fit].
Consider `O=C(c1cc(C(F)(F)F)cc(C(F)(F)F)c1)N1CCC2(CCCN(c3ccccn3)C2)CC1`, for which the max response reads like this: under setting [1], 16.5%; under setting [3], 13.7%. Also, the AC50 under setting [4] was 1.78 µM [rising, partial curve, poor fit].
`O=C(Nc1cccc(F)c1)N1CC2(CCN(C(=O)c3ccncc3)CC2)C1`: the max response under setting [1] came to 25.7% and the max response under setting [3] stood at 41.7%. For the same compound, under setting [4], the AC50 was 39.8 µM [rising, single point].
Consider `Cc1noc(C)c1-c1nc(N(C)Cc2ccco2)c2ccccc2n1`, for which the max response was 11% under setting [1] and 12% under setting [3]. Besides, under setting [4], the concentration at half-maximal activity (AC50) is 1.12 µM [rising, partial curve].
